In the RNAGym collection of RNA variant scans (doi:10.1093/nar/gkz1192) one finds self-cleavage data, which are given here for 167 variants.

The source gives no read counts; variants with many changes may rest on few reads.

Sequences and labels used below:
B1: CPEB3 Ribozyme (parent)
chain: UAACAGGGGGCCACAGCAGAAGCGUUCACGUCGCAGCCCCUGUCAGAUUCUGGUGAAUCUGCGAAUUCUGCUGUAUAUCUC

The variants in the series derive from B1. In words: self-cleavage, relative activity (ratio to wild type); higher = more cleavage; in vitro, sequencing. The method in brief: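 For each CPEB3 ribozyme variant, relative activity is its cleaved/total read fraction divided by the unmutated ribozyme's. Barcoded error-prone PCR libraries were transcribed by T7 RNA polymerase (5 hours, 37°C) and held in DNase I for 15 min before an EDTA stop, with cleavage occurring throughout. Template-switching reverse transcription and Illumina sequencing were used to read the RNAs. A 5-read minimum applied, and results are the mean of three batches.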
Turning to A5G G22A C39U A57G U69A, the self-cleavage was 0.17. The same measure for A5G G8A G10C A56G U76C: 0.06.

A5G U25C G33A: the self-cleavage is 0.7.

Consider A5G U25C U41C A45G U49C U80C, for which the self-cleavage came out at 0.13.

For A5G G9U A28G U69A, the self-cleavage is 0.17. The same measure for A5G G9A C39U A75C: 0.06; for A5G G7U U25C U58A U72C: 0.24. To A5G G9A U43C U48C belongs 0.09; to A5G U26A A45G U51C A75U, 0.17. Regarding A5G G22A U49A U72C, the self-cleavage was found to be 0.23.

As to A5G G7A A47C A56U U72C, the self-cleavage came out at 0.08. Turning to A5G G53A A65G C71U, the self-cleavage was 0.26. To A5G G9A U51A belongs 0.3; to A5G G10A A20U U31C, 0.31. The same measure for A5G G8A A47G U74C: 0.55.

Regarding A5G U25C C44G A45G U72C, the self-cleavage was determined as 0.24. To A5G G6A A18G A35G A45G A75U belongs 0.03; to A5G G9U G24A U43A, 0.06; to A5G G70C U74C U78C, 0.18. Consider A5G U25C G73C U80A, for which the self-cleavage turned out to be 0.61. To A5G G9A A35G A77G belongs 0.98; to A5G G6C A18U G24A A35G A75G U78G, 0.03. On to A5G G10A U67C U72A, for which the self-cleavage stood at 0.09.

Consider A5G U25A U43A U72G, for which the self-cleavage is 0.31.

Take A5G G6A A20G G30C U31C: the self-cleavage is 0.08. The same measure for A5G G9U U80C: 0.09; for A5G G19U A28G: 0.35; for A5G U26C C40A: 0.04.

Take A5G G7A A18G A35G U49A C68U: the self-cleavage was 0.06. As to A5G G6A C14U A56G A75U, the self-cleavage turned out to be 0.42. To A5G U26C U67A U74C belongs 0.32; to A5G G9U A28G, 0.27. The same measure for A5G G53C A57G U80C: 0.18. To A5G G10C A45G U78A C81G belongs 0.71. As to A5G U26G C38A U41A G61C, the self-cleavage came to 0.11. To A5G U26C A56C U58C belongs 0.27; to A5G U26A U72C A75G, 0.32. The same measure for A5G U25C A35U U41A G42C U43C U60G: 0.04.

For A5G G6A A56G U69C, the self-cleavage came out at 0.18. For the variant A5G U26C A57G U67A U72A, the self-cleavage came to 0.23. The same measure for A5G U25C A45G A56G A77C: 0.61; for A5G G10U G19U G42A U67A: 0.08. To A5G G30A G36A A65C belongs 0.38; to A5G G24U U54A A56U, 0.21; to A5G G9A U54C, 0.53.

For A5G G7C A28U, the self-cleavage was found to be 0.47.

Take A5G G8A C17U A20G U49A A56G C79U: the self-cleavage turned out to be 0.05. To A5G G8A U25C A57G U74C A75G belongs 0.45. In the case of A5G U26G U67C A77U U78C, the self-cleavage was 0.07.

On to A5G G8A C11G C27G U67C U76C A77G, for which the self-cleavage was 0.04. The same measure for A5G G52A U58A: 0.43; for A5G U26C U51C U80C: 0.29; for A5G U26A U54C U60A U69C: 0.21. For A5G G24U A35G G42A A75G, the self-cleavage was 0.08. Consider A5G U26A U41C U48C U69A, for which the self-cleavage is 0.6.

As for A5G U25C A28G C34U A65G, the self-cleavage stood at 0.26. To A5G G10C U67C belongs 0.54; to A5G G7C U43A U49C, 0.1. Turning to A5G U25C A45G U67C U76C A77G, the self-cleavage worked out at 0.

In the case of A5G G10A A64G, the self-cleavage is 0.54. The same measure for A5G U25C U69A U72C: 0.2; for A5G G7A G8U G19C U26C: 0.05.

With A5G G6A C23U, the self-cleavage turned out to be 0.07. The same measure for A5G U25C G30A A56G U60C U74A: 0.11; for A5G U25C U78C: 0.63; for A5G G7A U25C U26C G33A A65U: 0.04.

With A5G U31A A45G U48C A56U U67C A75C, the self-cleavage is 0.04. To A5G G6A A21G A35G G63C U78C belongs 0.06; to A5G G7C G63C, 0.23; to A5G G7A U26C C39U A45G U60A U69A, 0.05.

In the case of A5G U25C U49C U54C U69A C81U, the self-cleavage stood at 0.05. To A5G G30U G73A belongs 0.52; to A5G G7U U25C U69A A75U, 0.06; to A5G G10U A18C U43C A56G U78A, 0.06. To A5G G33A U69C U72C belongs 0.26; to A5G G8A G24A, 0.08; to A5G G9U G33A A35G U54C U69A, 0.04. The same measure for A5G U26A A35U U58A U60C: 0.33; for A5G G9A U26C C38A A45C U72C U76A: 0.05. In the case of A5G G36C A45U U54C A56G U72C A77G, the self-cleavage worked out at 0.06. The same measure for A5G C59U U60A U66C: 0.23. For A5G G10C A18U A56G, the self-cleavage was determined as 0.33.

A5G U26G U49A C59G: the self-cleavage is 0.08. The same measure for A5G G9A C11G A20G A45U U67A: 0.05.

In the case of A5G G6U U60C, the self-cleavage was 0.4.

As to A5G U25A A77G, the self-cleavage stood at 0.24. With A5G G8C A35C A45U A64G U80G, the self-cleavage came out at 0.06. Consider A5G G6C A20G U78C, for which the self-cleavage came to 0.61.

Take A5G U26A A45G U78C: the self-cleavage amounted to 0.43. The same measure for A5G G70C U78C: 0.19; for A5G U25C A65G: 0.22; for A5G G24A C34U: 0.09. The same measure for A5G U25C U41A A45G U58A A75G: 0.05. The same measure for A5G G6C U25C G30C: 0.4; for A5G G8A A28U C38A: 0.08; for A5G G8A A13G U26C U74C: 0.63. On to A5G U25C U48C, for which the self-cleavage came out at 0.45. Turning to A5G G8U U66C A77G, the self-cleavage was 0.18.

In the case of A5G G33C U54A A64U, the self-cleavage stood at 0.17. To A5G U31A A35G A57G G61A U72A belongs 0.14.

On to A5G U26C U76A, for which the self-cleavage stood at 0.44. For the variant A5G G42U C50A, the self-cleavage was 0.34. The same measure for A5G G8A A15G U25C U31A U80C: 0.07; for A5G U26C A35U U74C: 0.29. A5G U25A A45G: the self-cleavage came out at 0.31. On to A5G G9U A15G, for which the self-cleavage is 0.21. To A5G G6A U48C belongs 0.35; to A5G G24A U58A, 0.31; to A5G U25C C27A U41A A64G, 0.09. The same measure for A5G G19A A20U A57U: 0.41; for A5G G9A U60C U72A: 0.38; for A5G U26C U43C: 0.48. The same measure for A5G U26C U43G: 0.55. With A5G G7A A15U U72C, the self-cleavage worked out at 0.37.

In the case of A5G G22U U26C, the self-cleavage came to 0.15.

With A5G U26C A64G U72A U80C, the self-cleavage came to 0.11.

On to A5G G8C U26C U67C U72C, for which the self-cleavage came to 0.07. To A5G G6C A13G G16A A18U A56C U80C belongs 0.28. The same measure for A5G U25C A28U U43A: 0.64. A5G U25C A35U U80C: the self-cleavage was 0.14. The same measure for A5G G10A A13U A57U U58C U74C: 0.47; for A5G G8A U80C: 0.26; for A5G G19U U48C U72A: 0.15. The same measure for A5G G7A A20U A28C U43C A56G: 0.07. The same measure for A5G G30U U41A U48C G73A: 0.33; for A5G U26C U69A: 0.29. Turning to A5G U26C U69C, the self-cleavage was 0.26. With A5G U25C U31A C50A G70C, the self-cleavage was found to be 0.07.

In the case of A5G G6A C23U U31C, the self-cleavage stood at 0.25. To A5G G6U U80C belongs 0.2. The same measure for A5G G10C A13G A18G A20G A65U U74C: 0.12; for A5G G7C A28U U51A U54C U60C A75G: 0.14.

Turning to A5G U25C G33C A47G, the self-cleavage stood at 0.31. With A5G U26C U31C A65G, the self-cleavage came to 0.48. To A5G G10A C27U C71G belongs 0.08; to A5G G24A U25A U49C, 0.41; to A5G G30U A57G A75U, 0.26. For A5G U25A U58C A64G, the self-cleavage came out at 0.15. To A5G U25A U31C U41G A56G U66C U69C belongs 0.

Turning to A5G G6A U43C U60C A75G U80C, the self-cleavage stood at 0.12. To A5G G33A A47U belongs 0.29; to A5G G9U U26C A45G U69A, 0.02; to A5G G33C U54A U60A, 0.13. A5G U26A G30C A45U U58A: the self-cleavage came out at 0.27.

Consider A5G G6A U60C U74A, for which the self-cleavage came to 0.41. A5G U26A C34U A47C U69A: the self-cleavage came out at 0.09. To A5G U26C U31C G36A U74G A77U belongs 0.06; to A5G G6A A45U U51A, 0.08.

For the variant A5G G8A A18U U72A, the self-cleavage was 0.07. The same measure for A5G U26C U80C: 0.5; for A5G U25C U43A A45C: 0.4; for A5G G24C U26C A47G: 0.17. To A5G G30U C37A C71U belongs 0.08; to A5G G8C A18G U80A, 0.41. For A5G G8A G19U A47G, the self-cleavage turned out to be 0.07.

Take A5G G10U U43C: the self-cleavage is 0.17. As to A5G U25C A65G U72A U80A, the self-cleavage turned out to be 0.08. To A5G G6A U49C A64U A77U belongs 0.05. The same measure for A5G G9U A35G U43G U51C U54C A57G: 0.18. For the variant A5G U25C U31C, the self-cleavage came to 0.6.

As for A5G G10U U43C U51A U60A, the self-cleavage was determined as 0.18.

In the case of A5G U25C U43C U54G A75U, the self-cleavage amounted to 0.17.

As for A5G U25C G33A A35U U58C U74C A75U, the self-cleavage turned out to be 0.18. The same measure for A5G U26C U43C U74C: 0.53; for A5G C59U A64G: 0.15; for A5G C50A A57G U58A: 0.27.

For A5G G9U A28G G73U, the self-cleavage amounted to 0.17.
